Consider 44 compounds from article PMC4336329 (PLoS ONE, 2015).

In all, about 310,000 compounds went through this assay and about 14,000 (4.5%) showed an effect of 50% or more. The effect is printed as a negative number. This is one part of the list.
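Also: peak tail current of the secondary pulse compared with the same well before compound.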

The target of the assay is human ether-à-go-go-related gene (hERG) potassium channel (human, UniProt Q12809). Put plainly: primary screen, population patch clamp on CHO cells stably expressing hERG.
Chain of human ether-à-go-go-related gene (hERG) potassium channel (Q12809 whole entry, looked up): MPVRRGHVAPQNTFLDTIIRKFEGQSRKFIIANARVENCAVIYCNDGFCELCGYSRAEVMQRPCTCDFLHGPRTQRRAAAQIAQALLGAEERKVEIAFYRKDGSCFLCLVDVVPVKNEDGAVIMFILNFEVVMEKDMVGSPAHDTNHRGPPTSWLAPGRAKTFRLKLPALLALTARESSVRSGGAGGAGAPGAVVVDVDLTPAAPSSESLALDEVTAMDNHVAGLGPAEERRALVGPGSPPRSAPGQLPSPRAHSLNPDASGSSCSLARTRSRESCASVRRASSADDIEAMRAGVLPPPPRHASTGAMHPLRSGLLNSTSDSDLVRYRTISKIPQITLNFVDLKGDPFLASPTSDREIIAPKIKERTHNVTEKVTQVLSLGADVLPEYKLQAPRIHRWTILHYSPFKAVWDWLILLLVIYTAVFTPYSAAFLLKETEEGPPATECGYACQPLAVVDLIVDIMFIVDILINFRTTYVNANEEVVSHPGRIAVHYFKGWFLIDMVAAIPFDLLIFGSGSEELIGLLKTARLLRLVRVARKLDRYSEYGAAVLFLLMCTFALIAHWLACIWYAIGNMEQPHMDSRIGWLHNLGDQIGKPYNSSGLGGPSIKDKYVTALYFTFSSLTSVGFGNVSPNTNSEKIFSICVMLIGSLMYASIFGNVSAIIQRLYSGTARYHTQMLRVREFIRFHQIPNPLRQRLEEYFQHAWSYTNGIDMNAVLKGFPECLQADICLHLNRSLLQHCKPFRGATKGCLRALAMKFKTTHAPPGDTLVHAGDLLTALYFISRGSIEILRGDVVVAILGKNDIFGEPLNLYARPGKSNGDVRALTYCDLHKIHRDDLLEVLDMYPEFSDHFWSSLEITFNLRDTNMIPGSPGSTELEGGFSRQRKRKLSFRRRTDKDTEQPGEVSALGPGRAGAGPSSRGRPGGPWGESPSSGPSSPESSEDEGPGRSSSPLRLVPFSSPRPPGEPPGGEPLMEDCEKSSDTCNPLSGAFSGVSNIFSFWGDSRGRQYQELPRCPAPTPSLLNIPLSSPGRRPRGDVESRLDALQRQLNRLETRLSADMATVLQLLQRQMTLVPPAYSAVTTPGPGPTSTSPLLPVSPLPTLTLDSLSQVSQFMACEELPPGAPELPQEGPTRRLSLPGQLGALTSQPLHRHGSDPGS
For the compound `CC(C)CNC(=O)CC(NCC(C)C)C(=O)O` (centres unmarked), the “hERG current change (%, negative = inhibition) at 10uM” value was determined as 7.15%.
As for `COc1ccc(OC)c(-c2cc(C3CCN(c4cc(Cl)nc(N)n4)CC3)[nH]n2)c1`, the “hERG current change (%, negative = inhibition) at 10uM” value was -6.76%.
As for `C/C(Cc1ccccc1)=N\NC(=O)CNC(=O)c1cccc(Br)c1`, the figure is -7.73%; as for `O=C(Nc1ncccc1Cl)C(Sc1ccccc1)c1ccccc1` (centres unmarked), 8.58%; as for `Cc1ccc(/C=C(\NC(=O)c2ccccc2)C(=O)NC(Cc2ccccc2)C(=O)O)cc1` (centres unmarked), 16.4%.
Turning to `Cn1c(=O)c2c(nc(SCC(=O)N3CCCCCC3)n2C)n(C)c1=O`, the “hERG current change (%, negative = inhibition) at 10uM” value is given as -0.75%.
The figure for `O=C(NC(=S)Nc1ccc(N2CCOCC2)cc1)c1cncc(Br)c1` is 19.5%; for `CC(C)[C@H](NC(=O)c1ccco1)C(=O)N(C)Cc1c(F)cccc1Cl` it is -32.3%; for `CCN1C(=C2C(=O)c3ccccc3C2=O)C=Cc2ccccc21` it is 1.88%.
Consider `C=CCOc1ccc(C(c2c(C(=O)O)[nH]c3ccccc23)c2c(C(=O)O)[nH]c3ccccc23)cc1`, for which the “hERG current change (%, negative = inhibition) at 10uM” value stood at 6.74%.
Consider `O=C(CCC(NC(=O)OCc1ccccc1)C(=O)O)OCc1ccccc1` (centres unmarked), for which the “hERG current change (%, negative = inhibition) at 10uM” value is 24.3%.
As for `CCC(C)[C@H](NC(=O)N1CC(=O)Nc2ccccc21)C(=O)Nc1nccs1` (some centres unmarked), the “hERG current change (%, negative = inhibition) at 10uM” value is 1.18%.
`COc1cc(C(=O)Nc2ccc3c(c2)N(C(=O)CN2CCN(C)CC2)c2ccccc2CC3)cc(OC)c1OC.Cl`: the “hERG current change (%, negative = inhibition) at 10uM” value is listed as 7.61%.
For `O=C(Oc1ccc(Cl)c2cccnc12)c1cccnc1`, the “hERG current change (%, negative = inhibition) at 10uM” value is on record as 8.73%.
As to `CCOC(=O)NC(NC(=S)Nc1ccc(OCC)cc1)C(Cl)(Cl)Cl` (centres unmarked), the “hERG current change (%, negative = inhibition) at 10uM” value is given as 2.25%.
As to `COc1ccc(OCC(=O)N2CC3(C)CC2CC(C)(C)C3)cc1` (centres unmarked), the “hERG current change (%, negative = inhibition) at 10uM” value is listed as -21.2%.
The figure for `O=S(=O)(NCc1ccccn1)C(F)(F)F` is 7.84%.
In the case of `COc1ccc(S(=O)(=O)Oc2ccc3c(c2)O/C(=C\c2cccnc2)C3=O)cc1`, the “hERG current change (%, negative = inhibition) at 10uM” value was -3.29%.
For the compound `CCOC(=O)c1cc(-c2ccc(N)cc2)sc1N`, the “hERG current change (%, negative = inhibition) at 10uM” value is recorded as -7.2%.
In the case of `Cc1c(Br)c([N+](=O)[O-])nn1CC(=O)NC1CCCCCC1`, the “hERG current change (%, negative = inhibition) at 10uM” value is listed as 13.3%.
The figure for `CCCCOc1ccc(CONS(=O)(=O)c2ccc(NC(C)=O)cc2)cc1Cl` is 7.43%; for `CC(=O)Nc1ccc(OCC(O)CN2C(C)CCCC2C)cc1.Cl` (centres unmarked) it is 19.1%; for `Cc1cccc(CN2CCN(Cc3ccc(-n4cccn4)cc3)CC2CCO)n1` (centres unmarked) it is -30.2%.
As for `COc1cc([N+](=O)[O-])ccc1NC(=O)NNC(=O)CCc1ccccc1`, the figure is -5.13%; as for `CCN(CC)CCN(C)C(=O)c1ccc(OC2CCN(C(=O)C3CC3)CC2)cc1`, -0.764%; as for `COc1ccc(C2NC(=O)C(C)S2)cc1` (centres unmarked), 13.8%.
In the case of `CCOc1ccc(C(=O)Nc2cc(C)on2)cc1OCC`, the “hERG current change (%, negative = inhibition) at 10uM” value came to 10%.
`CCOC1=C/C(=C/c2c(N)n3nc(CC(=O)N4CCCC4)sc3nc2=O)C=CC1=O`: the “hERG current change (%, negative = inhibition) at 10uM” value came out at 17.7%.
`Cc1ccc(C=Nc2ccccc2C(N)=O)o1`: the “hERG current change (%, negative = inhibition) at 10uM” value is on record as 10.6%.
As for `CN1C(=O)/C(=C/c2cccc(Cl)c2)Sc2ccc(C(=O)N3CCOCC3)cc21`, the figure is -50.3%; as for `Cc1ccc(C)c(NC(=O)CSc2nnc(-c3ccncc3)n2N)c1`, 5.07%.
The figure for `CC(C)C(c1nnnn1Cc1ccc2c(c1)OCO2)N1CCN(C)CC1.Cl` (centres unmarked) is -0.377%.
Consider `Cc1cccc(NC(=O)CCCC(=O)OC(C)C(=O)c2ccccc2)c1` (centres unmarked), for which the “hERG current change (%, negative = inhibition) at 10uM” value was -6.58%.
`Cc1ccccc1C1=N/C(=C/c2cccnc2)C(=O)O1`: the “hERG current change (%, negative = inhibition) at 10uM” value came out at 11.4%.
Turning to `CN(C)S(=O)(=O)c1ccc(NC(=O)CSc2nc3ccccc3n2-c2ccccc2)cc1`, the “hERG current change (%, negative = inhibition) at 10uM” value was 24.2%.
As to `Cc1ccc2cc(C=O)c(Cl)nc2c1`, the “hERG current change (%, negative = inhibition) at 10uM” value is 33%.
As for `CC(=O)NC(=S)Nc1cc(C(=O)O)ccc1Cl`, the “hERG current change (%, negative = inhibition) at 10uM” value is -64.9%.
Regarding `O=C(NCC(=O)N(CC1CCCO1)C1(C(=O)NC2CCCC2)CCCCC1)c1ccccc1` (centres unmarked), the “hERG current change (%, negative = inhibition) at 10uM” value turned out to be 3.96%.
Take `CN(CC(=O)Nc1ccc(F)c(F)c1F)C(=O)CN1C(=O)NC2(CCCC2)C1=O`: the “hERG current change (%, negative = inhibition) at 10uM” value was 1.01%.
Consider `O=C(Nc1nncs1)C12CC3CC(CC(Cl)(C3)C1)C2`, for which the “hERG current change (%, negative = inhibition) at 10uM” value is 6.85%.
As for `CCCCNC(=O)CN(C1CCCCC1)S(C)(=O)=O`, the figure is 13.1%.
Consider `NC(=O)CSc1nnc(Cc2csc(Nc3ccccc3)n2)n1Cc1ccccc1`, for which the “hERG current change (%, negative = inhibition) at 10uM” value is -8.6%.
As for `CC(C)OP(=O)(OC(C)C)C(Nc1ccccc1)c1cccc([N+](=O)[O-])c1` (centres unmarked), the figure is 11.8%; as for `N#Cc1cccc(NC(=O)Cn2c3[n+](c4ccc(C(F)(F)F)cc42)CCCCC3)c1.[Cl-]`, 9.05%.
